{
  "source": "PubChem BioAssay (NCATS)",
  "key": {"[1]": {"target": "Vitamin D3 receptor (Homo sapiens) (UniProt P11473)", "experiment": "qHTS assay for small molecule antagonists of vitamin D receptor signaling (AID 588541);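 note: receptor activated by calcitriol during compound treatment; % is set by controls: 0 for no effect and ±100 for the full control effect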", "conditions": "HEK293T VDR-UAS-bla, beta-lactamase ratio, antagonist mode; activity change, negative = inhibition: at 76.7 µM (top of the series)"}, "[2]": {"target": "Vitamin D3 receptor (Homo sapiens) (UniProt P11473)", "experiment": "qHTS assay for small molecule agonists of vitamin D receptor signaling (AID 588543); note: potency is the fitted concentration of half-maximal effect", "conditions": "HEK293T VDR-UAS-bla, beta-lactamase ratio, 16 h; activation: at 76.8 µM (top of the series)", "procedure,_shortened": "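GeneBLAzer VDR-UAS-bla HEK293T cells in 2% charcoal-stripped FBS medium were dosed with compound titrations for 16 h at 37 °C; CCF4 β-lactamase readout (405 nm ex, 460/530 nm em). EC50 and efficacy from Hill fits, normalized to 50 nM calcitriol (100%) and DMSO (0%).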"}, "[3]": {"target": "Thyroid hormone receptor beta (Homo sapiens) (UniProt P10828)", "sequence (P10828 whole entry, looked up)": "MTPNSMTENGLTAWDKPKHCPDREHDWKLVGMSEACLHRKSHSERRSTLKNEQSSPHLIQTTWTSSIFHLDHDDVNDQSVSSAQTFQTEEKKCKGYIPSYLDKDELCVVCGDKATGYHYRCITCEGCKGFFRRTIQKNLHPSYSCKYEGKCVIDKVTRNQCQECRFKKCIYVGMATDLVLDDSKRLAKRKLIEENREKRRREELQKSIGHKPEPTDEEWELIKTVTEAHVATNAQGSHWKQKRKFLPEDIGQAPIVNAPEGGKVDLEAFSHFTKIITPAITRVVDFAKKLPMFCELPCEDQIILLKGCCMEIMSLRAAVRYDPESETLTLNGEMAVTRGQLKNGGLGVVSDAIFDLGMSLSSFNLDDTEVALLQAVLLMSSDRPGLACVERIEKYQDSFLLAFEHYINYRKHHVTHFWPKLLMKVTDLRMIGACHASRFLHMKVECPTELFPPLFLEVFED", "experiment": "qHTS assay for small molecule antagonists of thyroid hormone receptor beta signaling (AID 588547; active = well fitted inhibition curve with a large enough effect in the signal ratio, with a control signal flat, not every such curve was filed as active; inconclusive = small, poorly fitted or top-dose-only effect, or effect the other way, or a change in a side signal; the % refers to the signal ratio; note: potency is the fitted concentration of half-maximal effect; for activity change % (negative = inhibition): % is set by controls: 0 for no effect and ±100 for the full control effect)", "conditions": "TR-UAS-bla HEK293, beta-lactamase ratio, antagonist mode, 18 h", "procedure,_shortened": "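TR-UAS-bla GripTite HEK293 cells in 2% charcoal/dextran FBS medium; compounds 0.59 nM to 92 uM with T3 at 0.4nM final, 18 h at 37 C. Beta-lactamase read by CCF4 fluorescence (460/530 nm); Hill fits gave IC50 and efficacy.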"}, "[4]": {"experiment": "S16 Schwann cell PMP22 intronic element beta-lactamase assay (AID 624044); note: nearly all actives have a fitted effect of over 15% in size", "conditions": "S16 rat Schwann cells, PMP22 element beta-lactamase FRET, 24 h; ratio activity, negative = inhibition: at 38.3 µM (top of the series) unless noted", "procedure,_shortened": "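Rat S16 Schwann cells with beta-Lac driven by a PMP22 intronic element, compound-treated 24 h at 37 °C. LiveBLAzer FRET B/G read: 460 nm normalized to potassium clavulanate vs DMSO; 535 nm FRET as viability; concentration-effect curves classified.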"}, "[5]": {"target": "Glucocorticoid receptor (Homo sapiens) (UniProt P04150)", "experiment": "qHTS assay for small molecule antagonists of glucocorticoid receptor signaling (AID 588533; active = well fitted inhibition curve with a large enough effect in the signal ratio, with a control signal flat, not every such curve was filed as active; inconclusive = small, poorly fitted or top-dose-only effect, or effect the other way, or a change in a side signal; the % refers to the signal ratio; note: % is set by controls: 0 for no effect and ±100 for the full control effect)", "conditions": "HeLa MMTV-bla, GRE beta-lactamase ratio, antagonist mode, 18 h; activity change, negative = inhibition: at 76.8 µM (top of the series)"}, "[6]": {"target": "Peroxisome proliferator-activated receptor delta (Homo sapiens) (UniProt Q03181)", "sequence (Q03181 whole entry, looked up)": "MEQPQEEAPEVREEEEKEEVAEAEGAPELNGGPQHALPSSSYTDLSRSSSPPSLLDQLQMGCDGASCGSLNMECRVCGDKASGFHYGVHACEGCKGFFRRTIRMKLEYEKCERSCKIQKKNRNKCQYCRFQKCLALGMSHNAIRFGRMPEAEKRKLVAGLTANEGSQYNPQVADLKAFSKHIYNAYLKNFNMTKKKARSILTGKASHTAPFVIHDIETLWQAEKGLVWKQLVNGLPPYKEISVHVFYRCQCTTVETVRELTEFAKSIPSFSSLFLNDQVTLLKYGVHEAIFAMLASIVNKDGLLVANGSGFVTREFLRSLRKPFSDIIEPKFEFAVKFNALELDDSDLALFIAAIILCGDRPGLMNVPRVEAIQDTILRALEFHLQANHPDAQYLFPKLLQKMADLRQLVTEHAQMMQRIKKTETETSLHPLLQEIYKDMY", "experiment": "qHTS assay for small molecule agonists of peroxisome proliferator-activated receptor delta signaling (AID 588534); note: potency is the fitted concentration of half-maximal effect", "conditions": "HEK293T PPARdelta-UAS-bla, beta-lactamase ratio, 18 h; activation: at 76.7 µM (top of the series)", "procedure,_shortened": "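Reporter cells were plated and held 5 hrs at 37 C before compounds were added. After 18 hrs at 37 C, CCF4 dye was loaded for 2 hrs at RT and fluorescence measured.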"}, "[7]": {"target": "Peroxisome proliferator-activated receptor delta (Homo sapiens) (UniProt Q03181)", "experiment": "qHTS assay for small molecule antagonists of peroxisome proliferator-activated receptor delta signaling (AID 588535; active = well fitted inhibition curve with a large enough effect in the signal ratio, with a control signal flat, not every such curve was filed as active; inconclusive = small, poorly fitted or top-dose-only effect, or effect the other way, or a change in a side signal; inactive = no such curve, though single readings can be large or run the other way; the % refers to the signal ratio; note: potency is the fitted concentration of half-maximal effect)", "conditions": "HEK293T PPARd-UAS-bla, beta-lactamase FRET ratio, 18 h; activity change, negative = inhibition: at 76.7 µM (top of the series)", "procedure,_shortened": "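Cells were seeded at 4000 per well in assay medium containing 2% charcoal/dextran FBS and held 5 hrs at 37 C. Compounds were then added for 18 hrs. CCF4 substrate was applied for 2 hrs at room temperature before fluorescence reading.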"}, "[8]": {"target": "Peroxisome proliferator-activated receptor gamma (Homo sapiens) (UniProt P37231)", "experiment": "qHTS assay for small molecule agonists of peroxisome proliferator-activated receptor gamma signaling (AID 588536; active = well fitted curve in the direction sought with a large enough effect in the signal ratio, with a control signal flat, not every such curve was filed as active; inconclusive = small, poorly fitted or top-dose-only effect, or effect the other way, or a change in a side signal; inactive = no such curve, though single readings can be large or run the other way; the % refers to the signal ratio; note: potency is the fitted concentration of half-maximal effect)", "conditions": "HEK293 PPARg-UAS-bla, beta-lactamase ratio, 16 h; activation: at 76.7 µM (top of the series), percent of rosiglitazone response, DMSO as zero", "procedure,_shortened": "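PPAR-gamma-UAS-bla HEK293 cells in medium with 1% charcoal/dextran-treated FBS were exposed to compounds for 16 h at 37 C. Beta-lactamase activity was read with CCF4 substrate (405 nm excitation, 460/530 nm emission).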"}, "[9]": {"target": "Peroxisome proliferator-activated receptor gamma (Homo sapiens) (UniProt P37231)", "experiment": "qHTS assay for small molecule antagonists of peroxisome proliferator-activated receptor gamma signaling (AID 588537; active = well fitted inhibition curve with a large enough effect in the signal ratio, with a control signal flat, not every such curve was filed as active; inconclusive = small, poorly fitted or top-dose-only effect, or effect the other way, or a change in a side signal; the % refers to the signal ratio; note: potency is the fitted concentration of half-maximal effect;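 note: reporter cells co-stimulated with 50 nM rosiglitazone agonist during compound treatment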; for activity, negative = inhibition: % of control where 0% means no effect)", "conditions": "HEK293 PPARg-UAS-bla, beta-lactamase ratio, antagonist mode", "procedure,_shortened": "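Step one: plate 3000 HEK293 UAS-bla cells per well in medium with 1% stripped serum and hold 6-6.5 h at 37 C. Step two: add compound and 50 nM agonist for 16 h. Step three: CCF4 loading, fluorescence read.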"}, "[10]": {"target": "Retinoic acid receptor RXR-alpha (Homo sapiens) (UniProt P19793)", "sequence (P19793 whole entry, looked up)": "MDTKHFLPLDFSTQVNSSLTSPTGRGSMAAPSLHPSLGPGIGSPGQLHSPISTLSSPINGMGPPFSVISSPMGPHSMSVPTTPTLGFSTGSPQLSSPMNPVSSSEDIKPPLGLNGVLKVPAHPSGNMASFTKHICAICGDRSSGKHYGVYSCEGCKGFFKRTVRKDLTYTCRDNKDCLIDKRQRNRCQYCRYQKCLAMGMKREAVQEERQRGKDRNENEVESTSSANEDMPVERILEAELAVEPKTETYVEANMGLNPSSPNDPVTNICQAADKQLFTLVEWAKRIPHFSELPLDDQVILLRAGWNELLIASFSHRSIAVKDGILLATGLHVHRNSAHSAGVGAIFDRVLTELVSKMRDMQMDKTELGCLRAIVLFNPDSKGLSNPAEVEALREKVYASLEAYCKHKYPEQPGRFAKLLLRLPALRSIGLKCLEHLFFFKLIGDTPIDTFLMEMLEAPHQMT", "experiment": "qHTS assay for small molecule agonists of retinoid X receptor alpha signaling (AID 588544);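 note: 0% = DMSO basal wells and 100% = reference agonist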", "conditions": "HEK293T RXRa-UAS-bla, beta-lactamase reporter, 18 h; activation: at 76.7 µM (top of the series) unless noted"}, "[11]": {"experiment": "S16 Schwann cell PMP22 intronic element firefly luciferase assay (AID 624032; active = well fitted curve in the direction sought with a large enough effect; inconclusive = small, poorly fitted or top-dose-only effect, or another doubt; inactive = no such curve, though single readings can be large; an effect the other way counts as inactive or inconclusive; note: potency is the fitted concentration of half-maximal effect; nearly all actives have a fitted effect of over 30% in size)", "conditions": "S16 rat Schwann cells, PMP22 element FLuc, 24 h; series mostly up to 57.5 µM", "procedure,_shortened": "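Rat S16 Schwann cells stably carrying firefly luciferase driven by a PMP22 intronic element, in 10% FBS, treated 24 h at 37 C. ONE-Glo luminescence normalized to PTC124 control and DMSO (0%); curves classed by r2, magnitude and activity.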"}, "[12]": {"target": "Thyroid hormone receptor beta (Homo sapiens) (UniProt P10828)", "experiment": "qHTS assay for small molecule agonists of thyroid hormone receptor beta signaling (AID 588545)", "conditions": "TR-UAS-bla GripTite HEK 293, beta-lactamase ratio, agonist mode, 18 h; activation: at 76.7 µM, percent of T3 response, DMSO as zero", "procedure,_shortened": "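Efficacy and EC50 values derive from Hill fits of qHTS titration data, normalized to 10 nM T3 and DMSO-only wells. HEK 293 reporter cells were stimulated for 18 hrs at 37 C, with beta-lactamase activity measured by CCF4 fluorescence.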"}, "[13]": {"experiment": "S16 Schwann cell viability assay (CellTiter-Glo assay) (AID 624031; active = well fitted curve in the direction sought with a large enough effect; inconclusive = small, poorly fitted or top-dose-only effect, or another doubt; inactive = no such curve, though single readings can be large; an effect the other way counts as inactive or inconclusive;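 note: native untransfected S16 rat Schwann cells; cellular ATP luminescence as a viability measure; nearly all actives have a fitted effect of over 70% in size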)", "conditions": "S16 rat Schwann cells viability, 24 h; series mostly up to 57.5 µM", "procedure,_shortened": "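Concentration-effect curves come from CellTiter-Glo luminescence of S16 rat Schwann cells after 24 h compound exposure. Each reading was normalized to DMSO wells (0%) and wells without cells, and curves were ranked by r2 and response magnitude.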"}, "[14]": {"conditions": "activity, negative = inhibition: at 76.8 µM (top of the series) unless noted"}},
  "note": "Several values for one entry are separate records, joined by “and”; a condition that tells them apart may be missing. Equal entries are not always repeated. The inconclusive results got no clear call from the source; some entries with a clear call stand among them for comparison. For some assays here: A potency beside an inconclusive call is a rough fit, not a confirmed value. For some assays here: “Side channel” marks fits to a control or component signal instead of the main read-out. Activity calls are given as the source filed them. Unless noted, calls come from the whole dose curve. Tags give direction and shape of the fitted curve or compound fluorescence and quenching.",
  "data": [
    {"compound": "NCCO/C=C/[C@H](N)C(=O)O", "values": [
      {"measurement": "activity change, negative = inhibition", "setting": "[1]", "value": "inconclusive: 16.3%"},
      {"measurement": "Potency", "setting": "[2]", "value": "inconclusive: 0.0014 µM [side channel, falling, full curve, poor fit]"},
      {"measurement": "activity change % (negative = inhibition)", "setting": "[3]", "value": "inactive: 19.7%"},
      {"measurement": "Potency", "setting": "[4]", "value": "inactive"}
    ]},
    {"compound": "N=C(N)c1ccc(OCCCCCOc2ccc(C(=N)N)cc2)cc1", "values": [
      {"measurement": "activity change, negative = inhibition", "setting": "[5]", "value": "inconclusive: 90.6%"},
      {"measurement": "Potency", "setting": "[6]", "value": "inconclusive: 39.8 µM [side channel, rising, single point]"},
      {"measurement": "activity change, negative = inhibition", "setting": "[7]", "value": "inconclusive: -35%"},
      {"measurement": "Potency", "setting": "[8]", "value": "inconclusive: 44.7 µM [inhibitor, single point]"},
      {"measurement": "activation", "setting": "[8]", "value": "inconclusive: -14.3%"},
      {"measurement": "Potency", "setting": "[9]; [14]", "value": "inconclusive: 50.1 µM [fluorescent, single point]"},
      {"measurement": "activity, negative = inhibition", "setting": "[9]; [14]", "value": "inconclusive: -49.4%"},
      {"measurement": "activity change, negative = inhibition", "setting": "[1]", "value": "inconclusive: -23.1%"},
      {"measurement": "activation", "setting": "[10]", "value": "inconclusive: -30.1%"},
      {"measurement": "activity change % (negative = inhibition)", "setting": "[3]", "value": "inconclusive: -35.1% and inactive: -26.1%"},
      {"measurement": "Potency", "setting": "[11]", "value": "inconclusive: 36.1 µM [inhibitor, partial curve]"}
    ]},
    {"compound": "NC(=Nc1ccccc1)Nc1ccccc1", "values": [
      {"measurement": "activation", "setting": "[6]", "value": "inconclusive: -15.6%"},
      {"measurement": "Potency", "setting": "[7]", "value": "inactive"},
      {"measurement": "activity, negative = inhibition", "setting": "[9]; [14]", "value": "inconclusive: -18.5%"},
      {"measurement": "activity, negative = inhibition", "setting": "[9]; at 76.8 µM (top of the series)", "value": "inactive: 1.41%"},
      {"measurement": "activation", "setting": "[10]", "value": "inconclusive: -20.1%"},
      {"measurement": "activity change % (negative = inhibition)", "setting": "[3]", "value": "inconclusive: 7.08%"}
    ]},
    {"compound": "Cc1nnc(NS(=O)(=O)c2ccc(N)cc2)s1", "values": [
      {"measurement": "Potency", "setting": "[7]", "value": "inconclusive: 35.5 µM [activator, partial curve, poor fit]"},
      {"measurement": "activity, negative = inhibition", "setting": "[9]; [14]", "value": "inconclusive: 10.1%"}
    ]},
    {"compound": "NC(N)=NC(N)=NCCc1ccccc1", "values": [
      {"measurement": "activity change, negative = inhibition", "setting": "[5]", "value": "inconclusive: 91% and inconclusive: 47%"},
      {"measurement": "activation", "setting": "[6]", "value": "inconclusive: -15.9%"},
      {"measurement": "activity, negative = inhibition", "setting": "[9]; [14]", "value": "inconclusive: 7.84%"},
      {"measurement": "activation", "setting": "[12]", "value": "inconclusive: -15.1%"},
      {"measurement": "Potency", "setting": "[3]", "value": "inconclusive: 3.55 µM [cytotoxic, side channel, partial curve, poor fit]"},
      {"measurement": "activity change % (negative = inhibition)", "setting": "[3]", "value": "inconclusive: 21.3%"},
      {"measurement": "Potency", "setting": "[13]", "value": "inactive"},
      {"measurement": "Potency", "setting": "[11]", "value": "inconclusive: 13.8 µM [inhibitor, single point]"},
      {"measurement": "ratio activity, negative = inhibition", "setting": "[4]", "value": "inconclusive: 1.08% [cytotoxic]"}
    ]}
  ]
}
